# Laboratory results: PubChem BioAssay (NCATS)
# Inconclusive means that the source gave no clear call. Such entries were picked first, then a sample of the others. For part of these data: Potencies beside an inconclusive call are fits to weak or partial responses and may not hold up. Calls of active or inactive are those of the source. Unless noted, calls come from the whole dose curve; as a rule, active = well fitted curve in the direction sought with a large enough effect; inconclusive = small, poorly fitted or top-dose-only effect, or another doubt; inactive = no such curve, though single readings can be large; an effect the other way counts as inactive or inconclusive.
# What was measured:
# [1] = target: 3',5'-cyclic-AMP phosphodiesterase 4B (Homo sapiens) (UniProt Q07343); test: qHTS Assay for Inhibitors of PDE-IV (AID 607; active = well fitted activation curve with a large enough effect in the main read-out, with a control signal flat, not every such curve was filed as active; inconclusive = small, poorly fitted or top-dose-only effect, or effect the other way, or a change in a side signal; note: potency is the fitted concentration of half-maximal effect); details: HEK293 ACTOne CNG channel cells, membrane potential fluorescence; activation (PDE inhibition): at 22.9 µM (top of the series)
# Procedure, shortened: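 Cell-based read-out of cAMP via a modified cyclic nucleotide-gated channel and membrane potential dye (535/590 nm) in HEK293 cells expressing PDE4 endogenously. Compounds tested up to 22.9 uM final; 100 uM RO 20-1724 reference.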
# [2] = target: Ubiquitin carboxyl-terminal hydrolase 1 (Homo sapiens) (UniProt O94782); test: Inhibitors of USP1/UAF1: Pilot qHTS (AID 504865);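 note: rhodamine fluorescence freed from ubiquitin-rhodamine substrate followed over time; potency is the fitted concentration of half-maximal effect; nearly all actives have a fitted effect of over 35% in size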
# Procedure, shortened: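 Enzyme-free wells gave the negative control, while test wells held 1nM USP1/UAF1 preincubated with compound for 15 min at room temperature. Ub-Rho at 150nM final started the reaction, and fluorescence at 480/540 nm was recorded kinetically.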
# [3] = Primary qHTS for small molecule stabilizers of the endoplasmic reticulum resident proteome: Secreted ER Calcium Modulated Protein (SERCaMP) assay (AID 1508630); details: SH-SY5Y GLuc-SERCaMP (Gaussia luciferase released on ER calcium loss) secretion, thapsigargin, luminescence; activity change, negative = inhibition: at 38.4 µM (top of the series) unless noted; note: potency is the fitted concentration of half-maximal effect; for activity change, negative = inhibition: % is set by controls: 0 for no effect and ±100 for the full control effect
# Procedure, shortened: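 The SH-SY5Y reporter protocol was run at 3 concentrations up to 38.3 uM (primary) or 11 concentrations (follow-up): 16 h compound, 100 nM thapsigargin for 4 h, then extracellular luciferase luminescence.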
# [4] = target: Mitogen-activated protein kinase 10 (Mus musculus) (UniProt Q61831); test: JNK3 AlphaScreen Assay (AID 530; active = well fitted curve in either direction with a large enough effect, not every such curve was filed as active; inconclusive = small, poorly fitted or top-dose-only effect, or another doubt;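 note: kinase came from lysate of stimulated human HepG2 cells; signal reports phosphorylation of biotinylated GST-cJun 1-79 at Ser73 with 10 µM ATP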; note: potency is the fitted concentration of half-maximal effect; for activity change, negative = inhibition: % is set by controls: 0 for no effect and ±100 for the full control effect); details: JNK3 lysate, c-Jun phosphorylation; activity change, negative = inhibition: at 57.1 µM (top of the series)
# Procedure, shortened: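 Activity was read by AlphaScreen after JNK3-containing HepG2 lysate (cytokine pre-activated) phosphorylated biotinylated GST-cJun with 10 uM ATP at room temperature. Phospho-Ser73 cJun antibody with Protein-A acceptor beads provided detection.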
# [5] = qHTS Assay for Identification of Small Molecule Agonists for Hypoxia Response Element Signaling Pathway (AID 914; active = well fitted activation curve with a large enough effect in the signal ratio, with a control signal flat, not every such curve was filed as active; inconclusive = small, poorly fitted or top-dose-only effect, or effect the other way, or a change in a side signal; the % refers to the signal ratio; note: top concentration of the series differs between compounds; % of control where 0% means no effect); details: ME-180 (cervical carcinoma) HRE-bla reporter, beta-lactamase ratio, CoCl2, 17 h; activation: hits give high values
# Procedure, shortened: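 A beta-lactamase reporter under hypoxia response element control in ME-180 cells served as the system. Compound titrations plus EC50 CoCl2 ran 17 h at 37 degrees Celsius; AC50 values were fitted from %Activity.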
# [6] = target: Cytochrome P450 2C19 (Homo sapiens) (UniProt P33261); test: qHTS Assay for Inhibitors and Substrates of Cytochrome P450 2C19 (AID 899); note: potency is the fitted concentration of half-maximal effect; nearly all actives have a fitted effect of over 60% in size
# Procedure, shortened: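 Luminescent read-out of luciferin formed from Luciferin-H EGE (10uM, equal to KM). Enzyme 5nM in 50mM KPO4; compound added, 10 min at 37C, then NADPH regenerating system for 60 min at 37C. Full inhibition defined by 57uM ketoconazole.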
# Tags give direction and shape of the fitted curve.
# Sequence of UniProt O94782 (O94782 whole entry, looked up): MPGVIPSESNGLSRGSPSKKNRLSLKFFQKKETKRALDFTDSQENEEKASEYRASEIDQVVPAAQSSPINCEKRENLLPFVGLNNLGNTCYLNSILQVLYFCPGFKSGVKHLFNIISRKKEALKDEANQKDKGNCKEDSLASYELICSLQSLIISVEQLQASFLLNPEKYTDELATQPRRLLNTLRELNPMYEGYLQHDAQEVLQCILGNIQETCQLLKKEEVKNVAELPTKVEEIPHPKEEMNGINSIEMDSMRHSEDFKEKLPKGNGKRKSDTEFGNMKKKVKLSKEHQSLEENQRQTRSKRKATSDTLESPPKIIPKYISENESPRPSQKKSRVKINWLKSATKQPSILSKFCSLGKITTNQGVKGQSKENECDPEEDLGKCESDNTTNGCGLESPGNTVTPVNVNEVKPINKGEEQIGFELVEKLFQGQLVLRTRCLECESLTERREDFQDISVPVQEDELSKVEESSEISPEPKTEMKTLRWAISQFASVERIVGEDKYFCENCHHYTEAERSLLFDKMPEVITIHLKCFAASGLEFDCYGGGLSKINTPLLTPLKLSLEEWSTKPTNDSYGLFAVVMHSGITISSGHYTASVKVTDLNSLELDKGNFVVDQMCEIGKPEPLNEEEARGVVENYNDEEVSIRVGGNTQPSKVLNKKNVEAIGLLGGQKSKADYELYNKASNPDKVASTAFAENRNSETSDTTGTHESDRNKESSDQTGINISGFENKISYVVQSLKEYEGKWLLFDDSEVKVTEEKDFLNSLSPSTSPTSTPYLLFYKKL
# Sequence of UniProt Q07343 (Q07343 whole entry, looked up): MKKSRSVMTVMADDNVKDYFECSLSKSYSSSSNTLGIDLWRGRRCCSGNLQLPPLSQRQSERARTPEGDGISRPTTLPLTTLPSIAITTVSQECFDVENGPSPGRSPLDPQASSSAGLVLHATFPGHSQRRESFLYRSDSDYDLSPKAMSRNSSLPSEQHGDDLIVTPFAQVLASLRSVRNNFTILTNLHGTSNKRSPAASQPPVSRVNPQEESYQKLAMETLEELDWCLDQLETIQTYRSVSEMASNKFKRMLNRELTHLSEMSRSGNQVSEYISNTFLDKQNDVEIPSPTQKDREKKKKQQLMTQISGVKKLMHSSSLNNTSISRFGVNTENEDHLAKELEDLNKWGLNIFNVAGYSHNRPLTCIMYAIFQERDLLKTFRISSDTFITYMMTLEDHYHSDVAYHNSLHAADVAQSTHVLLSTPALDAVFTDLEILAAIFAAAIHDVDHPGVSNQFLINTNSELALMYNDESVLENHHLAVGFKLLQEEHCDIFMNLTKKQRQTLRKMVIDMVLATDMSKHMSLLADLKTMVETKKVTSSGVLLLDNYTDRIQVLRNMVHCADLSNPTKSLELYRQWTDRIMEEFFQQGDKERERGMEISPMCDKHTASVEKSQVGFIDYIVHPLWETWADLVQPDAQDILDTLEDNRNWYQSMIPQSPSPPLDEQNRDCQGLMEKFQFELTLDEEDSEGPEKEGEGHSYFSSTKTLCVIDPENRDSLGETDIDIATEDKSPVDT
# Sequence of UniProt P33261 (P33261 whole entry, looked up): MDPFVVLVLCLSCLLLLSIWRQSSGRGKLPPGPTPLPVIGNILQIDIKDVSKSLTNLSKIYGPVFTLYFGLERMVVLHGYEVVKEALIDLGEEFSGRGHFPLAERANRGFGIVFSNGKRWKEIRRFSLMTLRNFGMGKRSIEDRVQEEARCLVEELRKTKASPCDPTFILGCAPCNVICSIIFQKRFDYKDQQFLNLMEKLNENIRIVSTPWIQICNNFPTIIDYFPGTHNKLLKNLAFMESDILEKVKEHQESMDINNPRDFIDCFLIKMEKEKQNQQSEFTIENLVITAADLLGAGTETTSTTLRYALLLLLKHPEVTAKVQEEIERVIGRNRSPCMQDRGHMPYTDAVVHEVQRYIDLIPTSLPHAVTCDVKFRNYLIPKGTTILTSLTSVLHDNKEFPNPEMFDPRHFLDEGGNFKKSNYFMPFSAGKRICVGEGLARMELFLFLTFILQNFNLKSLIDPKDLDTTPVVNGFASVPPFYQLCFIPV
Compound,Potency [1],Potency [2],Potency [3],Potency [4],activation [5],Potency [6]
c1ccc(CNc2nc(-c3cccnc3)nc3ccccc23)cc1,"inconclusive: 12.6 µM [activator, partial curve]","inconclusive: 25.1 µM [inhibitor, partial curve, poor fit]","inconclusive: 22.4 µM [inhibitor, single point]",–,–,–
COc1ncc2nc(-c3cccc(C#N)c3)c(=O)n(CCC#N)c2n1,–,–,inactive,inactive,inactive: -3.76%,–
Cc1cccc(CNc2nc(-c3cccc(NS(C)(=O)=O)c3)nc3ccccc23)c1,"inconclusive: 12.6 µM [rising, partial curve]","inconclusive: 44.7 µM [inhibitor, partial curve]","inconclusive: 28.2 µM [inhibitor, single point]",–,–,–
CC(C)(C)Cn1nc(-c2ccc(Cl)cc2)c2c(N)ncnc21,"inconclusive: 9.51 µM [activator, partial curve]",–,inactive,"inconclusive: 25.1 µM [inhibitor, partial curve, poor fit]",–,–
Cc1ccccc1-c1cc(Nc2ccc(F)cc2)ncn1,"inconclusive: 12.6 µM [activator, single point]","inconclusive: 44.7 µM [inhibitor, partial curve]",inactive,–,–,active: 0.631 µM
O=c1cnc2cnc(OCc3ccccc3)nc2n1CCc1ccccc1,–,–,"inconclusive: 20 µM [inhibitor, single point]","inconclusive: 39.8 µM [activator, partial curve]",–,–
